# Source: PubChem BioAssay AID1030 (National Center for Advancing Translational Sciences (NCATS), 2008)
# Hit rate of the full screen: of about 220,000 compounds, about 16,000 (7.3%) were called active. This list was built around the results that the source calls inconclusive (neither active nor inactive); the mix of calls is not that of the screen. Calls follow the shape of the dose curve; as a rule, active = well fitted inhibition curve with a large enough effect (not every such curve was filed as active); inconclusive = small, poorly fitted or top-dose-only effect, or another doubt; inactive = no such curve, though single readings can be large or run the other way. No potency is given beside an inconclusive call; the fits are too rough.
# Target: Aldehyde dehydrogenase 1A1 (Homo sapiens) (UniProt P00352)
# Chain of UniProt P00352 (P00352 whole entry, looked up): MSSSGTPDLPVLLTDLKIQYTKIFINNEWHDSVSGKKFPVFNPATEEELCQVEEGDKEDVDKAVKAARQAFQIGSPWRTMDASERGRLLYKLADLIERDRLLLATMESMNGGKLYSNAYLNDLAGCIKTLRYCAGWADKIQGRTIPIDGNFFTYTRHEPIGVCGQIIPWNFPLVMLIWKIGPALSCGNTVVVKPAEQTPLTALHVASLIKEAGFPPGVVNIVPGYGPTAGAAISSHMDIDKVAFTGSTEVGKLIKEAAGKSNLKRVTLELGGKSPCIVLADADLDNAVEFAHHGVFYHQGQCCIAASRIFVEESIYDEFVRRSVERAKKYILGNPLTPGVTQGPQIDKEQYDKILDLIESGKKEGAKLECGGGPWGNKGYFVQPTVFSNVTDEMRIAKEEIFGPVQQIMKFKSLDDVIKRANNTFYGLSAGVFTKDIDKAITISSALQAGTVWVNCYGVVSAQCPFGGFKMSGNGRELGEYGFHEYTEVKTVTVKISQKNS
# Assay: qHTS Assay for Inhibitors of Aldehyde Dehydrogenase 1 (ALDH1A1);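 as to activity, negative = inhibition: plate controls were no enzyme wells and a reference inhibitor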
# Conditions: Purified ALDH1A1, NADH fluorescence, propionaldehyde substrate; series mostly up to 75.3 µM; activity, negative = inhibition: at the top concentration
# Potency is read from the fitted curve at half-maximal effect; tags tell the direction and shape of the fitted curve.
SMILES,Potency,"activity, negative = inhibition"
Cc1cccn2c(=O)c(/C=C(\C#N)S(=O)(=O)c3ccccc3)c(Oc3ccc(Cl)cc3)nc12,"inconclusive [inhibitor, full curve]",–
CCCCn1nc(NC(=O)c2cccs2)c2cc3ccccc3nc21,"inconclusive [inhibitor, single point]",–
CC(=O)OCC1OC(C#CC(C)(C)C)C=CC1OC(C)=O (stereo not given),"inconclusive [inhibitor, single point]",–
COc1ccc(C(=O)N2CCC3(CC2)CN(c2ccccc2)C3)cc1,–,inactive: -15.9%
COc1cc(OC)c(OC)cc1/C=N/Nc1nc2ccccc2[nH]1,–,inactive: 8.9%
O=C(O)CCn1c(=O)[nH]c2ccccc2c1=O,"inconclusive [inhibitor, single point]",–
CCOC(=O)C1(Cc2ccccc2)CCN(Cc2cccn2-c2nccs2)CC1,"inconclusive [inhibitor, single point]",–
CCN(CC)S(=O)(=O)N1CCC(C(=O)NCc2ccc(C)cc2)CC1,active: 4.47 µM,–
Cn1c(N/N=C/c2c[nH]c3ccccc23)nc2ccccc21,active: 15.8 µM,–
CC(C)Cn1c(N)c(C(=O)COC(=O)C2CCCCC2)c(=O)n(C)c1=O,"inconclusive [inhibitor, full curve]",–
Cc1ccnc(NS(=O)(=O)c2ccc(N)cc2)n1,inactive,–
O=C(NCc1ccc(F)cc1)c1cnc2sccn2c1=O,"inconclusive [inhibitor, single point]",–
CCNC(=S)N/N=C(\C)c1cccc(OC)c1,"inconclusive [inhibitor, full curve]",–
CCc1sc(C(=O)Nc2ccc(NC(C)=O)cc2)cc1C,"inconclusive [inhibitor, single point]",–
CCN(CCn1cccn1)Cc1cn[nH]c1-c1ccc(-c2ccccc2)cc1,"inconclusive [inhibitor, single point]",–
CN(C(=O)Cc1noc2ccccc12)c1ccccc1,–,inactive: -0.952%
Cc1[nH]nc(SCC(=O)N(C)c2ccccc2)c1[N+](=O)[O-],"inconclusive [inhibitor, single point]",–
CCCN(CCC)S(=O)(=O)c1ccc2c(c1)CCCN2C(C)=O,active: 5.01 µM,–
CCOc1ccc(/C=N/NC(=O)c2nnn(-c3nonc3N)c2-c2ccc(OCC)cc2)cc1,"inconclusive [inhibitor, single point]",–
CCOC(=O)Cc1csc(NC(=S)NC(=O)c2cc(OC)cc(OC)c2)n1,"inconclusive [inhibitor, single point]",–
